Experimental findings from article PMC4081100 are described below.

The entries are a selection whose mix differs from that of the whole data set. For some of these results: At the low end of the ranking, values are background and their order means little. This is one part of the list. For some of these results: The exact form of the protein is not confirmed.

Experiment in all cases: universal protein binding microarray (PBM)
Settings in all cases: transcription factors of Arabidopsis thaliana; high values mean tight binding; most listed sequences are background and not binding sites; double strand, one strand shown

Experiment [1] deals with T1, GST-ANAC092(1-176) (UniProt Q9FKA0).
T1 sequence: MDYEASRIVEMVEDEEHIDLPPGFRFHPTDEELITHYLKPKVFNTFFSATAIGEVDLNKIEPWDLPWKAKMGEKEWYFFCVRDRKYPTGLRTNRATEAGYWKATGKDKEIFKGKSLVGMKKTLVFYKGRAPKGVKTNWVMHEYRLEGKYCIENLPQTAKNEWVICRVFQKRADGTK

In experiment [2] the target is GST-NTL6(1-168) (UniProt Q9SCK6).
Experiment [3] addresses T2, GST-ANAC019 NAC domain (UniProt Q9C932).
T2 sequence: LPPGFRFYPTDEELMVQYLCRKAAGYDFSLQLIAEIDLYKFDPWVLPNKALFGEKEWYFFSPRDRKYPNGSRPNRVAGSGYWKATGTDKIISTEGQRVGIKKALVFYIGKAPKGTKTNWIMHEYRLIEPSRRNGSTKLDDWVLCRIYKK

Experiment [4] addresses T3, GST-ANAC055(1-171) (UniProt Q9LDY8).
T3 sequence: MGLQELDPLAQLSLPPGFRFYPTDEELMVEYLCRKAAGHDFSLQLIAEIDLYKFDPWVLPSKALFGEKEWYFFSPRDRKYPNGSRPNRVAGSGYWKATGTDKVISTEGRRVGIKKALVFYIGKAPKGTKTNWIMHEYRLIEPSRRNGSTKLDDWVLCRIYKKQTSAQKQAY

The target of experiment [5] is T4, GST-ANAC092(1-285) full length (UniProt Q9FKA0).
T4 sequence: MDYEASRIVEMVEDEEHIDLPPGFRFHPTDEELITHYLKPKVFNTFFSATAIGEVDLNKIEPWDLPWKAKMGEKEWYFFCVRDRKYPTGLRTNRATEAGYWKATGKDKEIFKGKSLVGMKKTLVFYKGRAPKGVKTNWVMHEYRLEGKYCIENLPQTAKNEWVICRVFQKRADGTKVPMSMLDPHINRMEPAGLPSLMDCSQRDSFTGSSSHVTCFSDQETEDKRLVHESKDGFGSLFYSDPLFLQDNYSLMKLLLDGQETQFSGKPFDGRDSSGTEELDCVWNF

For experiment [6], the target named is T5, GST-NAP(1-166) (UniProt O49255).
T5 sequence: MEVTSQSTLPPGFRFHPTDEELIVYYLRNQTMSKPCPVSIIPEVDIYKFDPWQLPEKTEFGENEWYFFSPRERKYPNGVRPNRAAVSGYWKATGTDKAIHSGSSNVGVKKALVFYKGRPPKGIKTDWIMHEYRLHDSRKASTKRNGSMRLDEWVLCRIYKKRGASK

Experiment [7] deals with T6, GST-NST2(1-184) (UniProt Q9M274).
T6 sequence: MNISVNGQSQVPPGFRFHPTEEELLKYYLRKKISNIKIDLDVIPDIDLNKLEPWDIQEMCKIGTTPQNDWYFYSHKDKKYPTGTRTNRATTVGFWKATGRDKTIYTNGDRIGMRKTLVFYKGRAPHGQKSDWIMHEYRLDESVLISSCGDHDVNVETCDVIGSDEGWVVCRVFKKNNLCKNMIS

The target of experiment [8] is T7, GST-NTL8 NAC domain (UniProt Q9XIN7).
T7 sequence: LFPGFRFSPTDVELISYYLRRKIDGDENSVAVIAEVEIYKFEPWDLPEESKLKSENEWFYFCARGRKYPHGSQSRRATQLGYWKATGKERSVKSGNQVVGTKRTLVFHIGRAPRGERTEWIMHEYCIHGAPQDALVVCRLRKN

Experiment [9] deals with T8, GST-VND3 NAC domain (UniProt Q9FH59).
T8 sequence: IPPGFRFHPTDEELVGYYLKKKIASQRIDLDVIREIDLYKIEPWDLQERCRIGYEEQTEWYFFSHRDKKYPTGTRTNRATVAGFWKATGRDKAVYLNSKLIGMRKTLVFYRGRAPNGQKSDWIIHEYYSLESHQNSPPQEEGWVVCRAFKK

The target in experiment [10] is T9, GST-VND7 NAC domain (UniProt Q9C8W9).
T9 sequence: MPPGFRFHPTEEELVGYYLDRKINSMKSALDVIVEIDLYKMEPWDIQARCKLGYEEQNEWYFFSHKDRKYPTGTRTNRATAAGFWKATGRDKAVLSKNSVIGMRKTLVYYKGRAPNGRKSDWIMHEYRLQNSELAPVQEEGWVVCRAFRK

In experiment [11] the target is T10, GST-VOZ2 (Arabidopsis thaliana) (UniProt Q9SLB9).
T10 sequence: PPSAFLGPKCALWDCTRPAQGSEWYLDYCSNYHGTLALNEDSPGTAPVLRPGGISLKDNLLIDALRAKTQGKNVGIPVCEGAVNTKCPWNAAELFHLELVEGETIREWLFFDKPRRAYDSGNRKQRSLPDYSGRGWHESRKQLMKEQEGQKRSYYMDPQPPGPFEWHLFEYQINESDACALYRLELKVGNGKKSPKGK

Experiment [12] has as its target GST-WRKY1(266-371) (UniProt Q9SI37).
The target of experiment [13] is T11, GST-ATAF1 NAC domain (UniProt Q39013).
T11 sequence: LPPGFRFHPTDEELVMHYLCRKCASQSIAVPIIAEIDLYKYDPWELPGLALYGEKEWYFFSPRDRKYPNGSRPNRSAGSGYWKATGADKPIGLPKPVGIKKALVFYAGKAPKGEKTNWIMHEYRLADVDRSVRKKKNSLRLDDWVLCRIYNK

Experiment [14] has as its target T12, GST-SND1(1-203) (UniProt Q9LPI7).
T12 sequence: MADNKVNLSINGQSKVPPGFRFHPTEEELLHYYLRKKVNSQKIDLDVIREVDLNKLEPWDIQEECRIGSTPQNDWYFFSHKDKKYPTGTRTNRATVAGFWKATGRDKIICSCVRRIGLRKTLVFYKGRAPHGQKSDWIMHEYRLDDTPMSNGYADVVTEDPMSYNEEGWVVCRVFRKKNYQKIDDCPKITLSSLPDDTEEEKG

Regarding ACTTTCCT, the binding signal in experiment [1] was 0.00267 E-score; in [2], 0.292 E-score; in experiment [3], 0.0411 E-score; in experiment [4], 0.171 E-score; in experiment [5], 0.0813 E-score; in experiment [6] it was 0.0235 E-score. Moreover, the binding signal in experiment [7] was 0.144 E-score; in experiment [8] it was 0.4 E-score; in experiment [9], 0.018 E-score; in [10], 0.121 E-score; in [11] it was -0.0114 E-score; in [12] it was 0.171 E-score.
For GCTAAGCA, the binding signal is 0.0197 E-score in experiment [1]; 0.411 E-score in experiment [2]; -0.0557 E-score in experiment [3]; -0.133 E-score in experiment [4]; -0.248 E-score in experiment [13]; -0.0522 E-score in experiment [5]. Moreover, the binding signal in experiment [6] is -0.0615 E-score; in experiment [8], -0.101 E-score; in [9] it was -0.0632 E-score; in experiment [10], -0.00704 E-score; in [11] it was -0.177 E-score; in experiment [12], -0.213 E-score.
Turning to GTAGTCAA, the binding signal in [1] is -0.0248 E-score; in experiment [2], 0.0675 E-score; in [3], 0.0334 E-score; in experiment [5], 0.000745 E-score; in experiment [6], 0.0663 E-score; in experiment [8] it was 0.00194 E-score. The binding signal in experiment [9] was 0.134 E-score; in experiment [10], -0.0478 E-score; in experiment [11] it was -0.0562 E-score; in experiment [12], 0.478 E-score.
In the case of TTACTCAA, the binding signal in [8] was 0.0629 E-score; in experiment [14] it was 0.445 E-score; in [11], 0.0666 E-score; in experiment [12], -0.0441 E-score.
In the case of CTACGCGA, the binding signal in [1] is 0.0195 E-score; in experiment [2], -0.0518 E-score; in experiment [3], -0.0262 E-score; in experiment [4], -0.117 E-score; in experiment [13], -0.00467 E-score; in [6], -0.0157 E-score. Besides, the binding signal was 0.0132 E-score in experiment [8]; -0.0903 E-score in [9]; 0.0441 E-score in [10]; 0.0326 E-score in experiment [11]; 0.0113 E-score in [12].
On to TCAGTCAA, for which the binding signal in experiment [1] is -0.0566 E-score; in experiment [2] it was -0.0365 E-score; in experiment [3] it was -0.0194 E-score; in experiment [4], -0.0534 E-score; in experiment [5] it was 0.0254 E-score; in [6], -0.0898 E-score. Besides, the binding signal in experiment [7] was -0.00316 E-score; in [8] it was 0.0655 E-score; in experiment [9] it was 0.0235 E-score; in [10], -0.0285 E-score; in [11], -0.023 E-score; in experiment [12], 0.473 E-score.
On to CACGTCAG, for which the binding signal was -0.173 E-score in experiment [2]; 0.19 E-score in experiment [4]; 0.0323 E-score in experiment [7]; -0.0986 E-score in [8]; 0.0864 E-score in experiment [14]; -0.112 E-score in [11].
Take GGGGGTAA: the binding signal in [1] is -0.155 E-score; in [2] it was 0.147 E-score; in experiment [3], -0.117 E-score; in experiment [4], -0.272 E-score; in [13], -0.167 E-score; in experiment [6], -0.0656 E-score. Moreover, the binding signal in experiment [7] was -0.101 E-score; in [8], 0.403 E-score; in experiment [9], -0.213 E-score; in [10], -0.196 E-score; in experiment [11] it was 0.155 E-score; in experiment [12] it was -0.29 E-score.
In the case of GTCAACGA, the binding signal was -0.0919 E-score in experiment [1]; -0.165 E-score in experiment [2]; 0.0209 E-score in experiment [3]; -0.141 E-score in experiment [4]; 0.0445 E-score in experiment [13]; 0.0192 E-score in [5]. The binding signal in experiment [6] was -0.0489 E-score; in experiment [7], -0.149 E-score; in experiment [8], -0.048 E-score; in experiment [14] it was 0.041 E-score; in experiment [11], 0.0147 E-score.
Consider TGACCGAA, for which the binding signal was -0.0964 E-score in [1]; -0.0631 E-score in experiment [2]; -0.03 E-score in experiment [3]; -0.0598 E-score in [4]; -0.0181 E-score in experiment [13]; -0.0386 E-score in [5]. For the same sequence, the binding signal is 0.0367 E-score in experiment [6]; 0.00371 E-score in experiment [7]; -0.105 E-score in [8]; -0.019 E-score in [9]; -0.0822 E-score in experiment [10]; 0.0418 E-score in experiment [11]. The sequence further registered a binding signal in experiment [12] of 0.459 E-score.
As for ACCTTACC, the binding signal is 0.00609 E-score in experiment [1]; 0.306 E-score in experiment [2]; -0.0167 E-score in [3]; -0.0385 E-score in experiment [4]; 0.111 E-score in experiment [5]; -0.131 E-score in experiment [6]. Besides, the binding signal in [7] is -0.0579 E-score; in [8] it was 0.417 E-score; in experiment [9], -0.0195 E-score; in experiment [10], 0.0483 E-score; in [11] it was 0.119 E-score; in experiment [12], -0.0454 E-score.
For ACTGACCT, the binding signal in [1] is -0.0142 E-score; in experiment [2], -0.0219 E-score; in [3], -0.00789 E-score; in experiment [4], -0.0359 E-score; in experiment [13] it was -0.0959 E-score; in [5] it was -0.0898 E-score. Besides, the binding signal in experiment [6] is -0.0607 E-score; in [7], 0.00237 E-score; in experiment [9], -0.0318 E-score; in experiment [10], -0.0778 E-score; in experiment [11], -0.0195 E-score; in experiment [12], 0.407 E-score.
